Laboratory results published in the supplement of paper PMC11417369.
This is one part of the list.

Test system: PfAP2-HC AP2 domain (GST-tagged)
Assay: gcPBM binding intensity (ln(normalized median fluorescence intensity)); higher = stronger DNA binding
Summary of the method: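 Binding intensity is defined as the maximum Masliner-normalised natural-log median intensity across replicate spots for either probe orientation. It was measured on an Agilent 4 × 180k array of primer-extended double-stranded 36-bp intergenic genomic probes and negative controls, to which GST-tagged P. falciparum DNA-binding domains made in E. coli were applied for 1 h in 1× PBS with 1% milk, 0.2 mg/ml BSA, 0.5% salmon testes DNA and 0.03% Triton X-100. Detection was by Alexa488 anti-GST antibody and scanning at 488 nm.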

**Q.** How did the “gcPBM binding intensity (ln)” value turn out when “TTATATAACATTATTTGTACATATAAAATATGGATG [XGTACX_site8526]” was run?
**A.** 9.52

**Q.** “AAAAAAAATTTATGGGGTACATATTATAATATTATA [XGTACX_site3395]” was tested. Which “gcPBM binding intensity (ln)” value did it give?
**A.** 9.52

**Q.** For “TATATAACCTATAGCACACATATATAATATATATTA [CACACA_site1834]”, which “gcPBM binding intensity (ln)” value is on record?
**A.** 9.67

**Q.** How did the “gcPBM binding intensity (ln)” value turn out when “TTCTATTCAAATGCAAAATTATTAAATAAAAAATAA [GTGCAC_negctrl_site708]” was run?
**A.** 9.32

**Q.** Which “gcPBM binding intensity (ln)” value does the source give for “TTATTTTTTTTAAATTGTACAAGGAACAGTGAAAAA [XGTACX_site4380]” here?
**A.** 9.42

**Q.** Which “gcPBM binding intensity (ln)” value does the source give for TTTGTGTGTACGCGTGTGCACATTTTTTTTTTTTTT here?
**A.** 9.89

**Q.** Which “gcPBM binding intensity (ln)” value does the source give for “TAAATGTCTTCAATGAAGTGGAAATGCTGTTATATA [CACACA_negctrl_site1155]” here?
**A.** 9.5

**Q.** For “AAAAAAAATTTTAATTGTACAAAAAAAAAAAATATA [XGTACX_site2259]”, which “gcPBM binding intensity (ln)” value is on record?
**A.** 9.63

**Q.** “TATATATGGGTAACCTTTTTTTTTTTTTTTCGAACA [CACACA_negctrl_site1303]” was tested. Which “gcPBM binding intensity (ln)” value did it give?
**A.** 9.27

**Q.** How did the “gcPBM binding intensity (ln)” value turn out when “GGAAAATATGTTTGTGTGCACAGCTAGCTATTTGTA [GTGCAC_site9637]” was run?
**A.** 9.93

**Q.** Which “gcPBM binding intensity (ln)” value does the source give for “AAATAAATTGATTCAACACACACATATGTAGGAAGT [CACACA_site9068]” here?
**A.** 10.5

**Q.** “TTTTTTTTTTTCAAGCGTACAAAAAATATATTTAAA [XGTACX_site5327]” was tested. Which “gcPBM binding intensity (ln)” value did it give?
**A.** 9.29

**Q.** “AATTTTTTTTGTCTCTGTACTTATAAAATATATATG [XGTACX_site4742]” was tested. Which “gcPBM binding intensity (ln)” value did it give?
**A.** 9.69

**Q.** With “TAAAACCTTTAAAATACATGCAGCATATATAAGTAA [TGCATGCA_site181]” as the sequence, how does the “gcPBM binding intensity (ln)” value read?
**A.** 9.6

**Q.** Which “gcPBM binding intensity (ln)” value does the source give for “AAGGATATAACATACACACACACACCCATATATATA [CACACA_site4142]” here?
**A.** 11.1

**Q.** Which “gcPBM binding intensity (ln)” value does the source give for “AAAGAAATTATTTGTTGTACATATGTTATTTTTTTT [XGTACX_site7570]” here?
**A.** 9.74

**Q.** How did the “gcPBM binding intensity (ln)” value turn out when TGCAATTTAATATGAGTGCATATATTGAGAAAATAC was run?
**A.** 9.64

**Q.** “AATAAATTGGTATGTTGTACAAAGTAACCATCGATT [XGTACX_site2823]” was tested. Which “gcPBM binding intensity (ln)” value did it give?
**A.** 9.75

**Q.** Which “gcPBM binding intensity (ln)” value does the source give for “ATATCATGTTAAGATTGTACATATATATAATATATA [XGTACX_site7626]” here?
**A.** 9.59

**Q.** For “AAATAACAAATTTTTAAAATGTATATATATATATAT [TGCATGCA_negctrl_site219]”, which “gcPBM binding intensity (ln)” value is on record?
**A.** 9.47

**Q.** With “ATTCATAATTTATTATGTACATATATATAATATATT [XGTACX_site1711]” as the sequence, how does the “gcPBM binding intensity (ln)” value read?
**A.** 9.7

**Q.** How did the “gcPBM binding intensity (ln)” value turn out when “TTATAATAAATATTCATATGTTCAAATATATATATA [CACACA_negctrl_site624]” was run?
**A.** 9.45

**Q.** With “TTTATTTATTATTATGTACACACTATATTAAAACAT [CACACA_site700]” as the sequence, how does the “gcPBM binding intensity (ln)” value read?
**A.** 9.74

**Q.** For “TATAGATTTATATACACATGCATTTTGGTAAAGAAA [TGCATGCA_site953]”, which “gcPBM binding intensity (ln)” value is on record?
**A.** 9.6

**Q.** With “AAATATATTTCTTTTTTTCTTATTATTAATTTGCTT [CACACA_negctrl_site1483]” as the sequence, how does the “gcPBM binding intensity (ln)” value read?
**A.** 9.59
